# Over roughly 33,000 sequences, “E-score (dimensionless, -0.5 to 0.5)” has its median near -0.058; the highest 2% begin near 0.35. The list shows a part of the results.
# Test system: MvaT
# Assay: PBM 8-mer E-score (mean of HK and ME arrays) (E-score (dimensionless, -0.5 to 0.5)); higher = stronger relative binding preference; most listed sequences are background and not binding sites
# How it was run: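 Full-length P. aeruginosa MvaT, with glutathione S-transferase fused to its N-terminus (cloned into pTH6838 by isothermal assembly), was tested by protein binding microarray using a previously described protocol. Two universal double-stranded 60-mer arrays (ME and HK) were used, each with a constant 25-mer primer region and a variable 35-mer region covering all 8-mers. The rank-based 8-mer E-score (-0.5 to 0.5) is the mean of the two arrays, parsed with a custom Python script.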
row,Sequence,PBM 8-mer E-score
1,AGGGTGTC,-0.156
2,CAGGAGAG,-0.196
3,AGAGCAAA,0.0556
4,CCAAGAGG,-0.282
5,GTCTGCTA,-0.157
6,CCCCCTCG,-0.353
7,CAAGACCA,-0.0823
8,ATAGAATA,0.314
9,AAGGAGGC,-0.228
10,CATGACGC,-0.222
11,ACTTCTGC,0.0207
12,ATTATGGG,0.207
13,CGTCGGCC,-0.384
14,GAGCCTTA,-0.229
15,GACTTGGC,-0.156
16,ATGACAAG,0.000949
17,GTCATTCA,-0.0469
18,GCAAAACA,0.0104
19,GTACGTAC,-0.0487
20,CGCGGGGA,-0.22
21,ACCCGTAA,0.149
22,CCCTCGAC,-0.287
23,AATACTAT,0.297
24,AGTATATC,0.259
25,ATGTAGGA,0.0586

row,Sequence,PBM 8-mer E-score
1,CGGTTTTC,-0.112
2,ATCGACAT,-0.11
3,CGTAACTA,0.131
4,AAAAGAGC,-0.0652
5,CGTTCGGC,-0.146
6,CTACCATC,0.0334
7,AGAGCTTA,-0.124
8,ATCTCATA,-0.00882
9,CCCGGAAC,-0.119
10,AACTGTAA,0.248
11,GAGGCCGC,-0.271
12,GCTGCACC,-0.3
13,CGCATTAC,-0.128
14,ACCTCATC,-0.114
15,CGGGCTTA,-0.116
16,CGGACCCG,-0.216
17,CCCGTGTA,-0.0703
18,CAGAGCGG,-0.251
19,CCTGCCTA,-0.146
20,AGTTGTTG,0.223
21,ATATACTA,0.422
22,AAGAAACG,-0.00721
23,TCAGTCGA,-0.102
24,CCTGAGAA,0.0172
25,GACATGTC,-0.113

row,Sequence,PBM 8-mer E-score
1,AAAAAACA,0.206
2,ACCCGGAC,-0.265
3,ATTATCTA,0.269
4,GTTATGCA,0.214
5,GGCTACCC,-0.286
6,GGATCCGA,-0.181
7,ATCATACC,0.048
8,GAAGGCGA,-0.262
9,ACACCAGG,-0.0463
10,AAATCAAC,0.0396
11,CTCGCTCC,-0.221
12,AGGTATTC,-0.0798
13,ACGCGGGC,-0.202
14,AATACGCA,0.0135
15,AGCGAGCA,-0.14
16,GTCGCCTA,-0.0923
17,CGAGCCAA,-0.224
18,CCACGGAC,-0.062
19,AGCGGGTG,-0.0873
20,GATTACAC,0.18
21,GCAAGGGA,-0.27
22,ACCTTCAC,-0.0816
23,ATATTATC,0.439
24,CTAGGCCC,-0.265
25,AGTCGCTA,-0.105

row,Sequence,PBM 8-mer E-score
1,CATAGCCA,-0.247
2,GACCGTAC,-0.209
3,CACTGAAA,0.0505
4,ATGTCCAC,0.0955
5,ATCCTATA,0.189
6,GTGGGACA,-0.0255
7,CAAGTCCC,-0.185
8,ACGTCACC,-0.0844
9,CGATAATC,0.203
10,AGGCTACG,-0.289
11,AGTTTTAA,0.259
12,GTAAAAAC,0.181
13,GCTCCCTA,-0.283
14,CCTAAACG,-0.0804
15,GCTCGGAA,-0.0572
16,ACCGAACG,-0.218
17,GCGCGAAA,-0.00383
18,AGCTGTGG,-0.223
19,AATGTAGG,0.101
20,CCCTAGAC,-0.259
21,AGTCCCTG,-0.155
22,GACTTCGC,-0.11
23,CTGTTTGA,0.0385
24,CGCTGTTC,-0.0932
25,TGGCTTAA,0.145

row,Sequence,PBM 8-mer E-score
1,AAGGTTCA,-0.123
2,TCGCTAGA,-0.02
3,TAACTCTA,0.259
4,GCGCTAGA,-0.127
5,CAGAACAC,-0.0704
6,AGGCCGAC,-0.257
7,TTGGCCAA,-0.0832
8,AAGAGTAT,0.189
9,AGCACAGC,-0.139
10,CTGTCCGA,-0.0818
11,CACAAGAC,-0.103
12,AACAGGCT,-0.216
13,CATATCCA,0.176
14,CAAATCCC,-0.0516
15,AAGCCTGG,-0.137
16,CCTGTGGC,-0.308
17,ATGGATCA,-0.0944
18,GCTTCTCC,-0.314
19,ACAGTGAC,-0.0911
20,CATCGGCG,-0.259
21,CGTCAATA,0.197
22,ATGCGGAC,-0.0939
23,CTGGTACC,-0.174
24,TTCGCCAA,-0.00624
25,GCATAAGA,0.0363

row,Sequence,PBM 8-mer E-score
1,CTCTGGAC,-0.207
2,CTCGGCTA,-0.108
3,ATAGTACC,0.0557
4,AGACTCGA,-0.0278
5,ATTTGGCG,0.1
6,GGTACCAC,-0.183
7,ACTGTCCT,-0.0272
8,AATTTCGG,0.234
9,AAATTTTG,0.216
10,AGCACTGC,-0.245
11,AAGTCAGC,-0.0121
12,ATTGCCAG,0.0835
13,AATACCAC,0.206
14,GAACTATC,0.105
15,CAGAACCG,-0.137
16,CTAATCCA,0.12
17,CAACAAAC,0.282
18,GTGCACAC,-0.00272
19,TAGCCCAA,-0.00206
20,ACACTCTG,-0.0366
21,CCGCCACC,-0.13
22,ACTCTGCG,0.0292
23,ATAGCGCG,0.135
24,GGCTGACA,-0.0719
25,CATTCGGC,-0.217

row,Sequence,PBM 8-mer E-score
1,AGCGGTCA,-0.0602
2,TCTATTCA,-0.0033
3,ACCCGACT,-0.0208
4,GCGAATCC,-0.138
5,AAGCCGAG,-0.135
6,ACGAGAGG,-0.161
7,TACTTCTA,0.273
8,AATACAGA,0.153
9,CGTACATA,0.192
10,CTCCCTTC,-0.243
11,CTCTTGAC,-0.19
12,GTTTTGTA,0.194
13,GACGCGAC,-0.154
14,AGCAAGAT,-0.0566
15,AACGGGTC,-0.234
16,AACAAGAA,0.188
17,AGTGGATG,-0.196
18,ACAGACCC,-0.136
19,TACCTGAA,0.0511
20,AACATTCG,0.0984
21,AATTACCG,0.197
22,GTTCAGAA,0.00771

# — the supplement of paper PMC4466236
